Data as given in PMC12820563.
This is one part of the list. The list includes weakly bound sequences.

molecular target: T1, MBP-FoxP3dN (UniProt Q99JB6); assay: PD-seq (MBP pull-down with sequencing); conditions: 20 mM Tris-HCl pH 7.5, 100 mM NaCl, 1.5 mM MgCl2, 0.4 uM protein, 0.1 uM dsDNA library, 30 min, room temperature, amylose pull-down; high values mean tight binding; double strand, one strand shown
T1 sequence: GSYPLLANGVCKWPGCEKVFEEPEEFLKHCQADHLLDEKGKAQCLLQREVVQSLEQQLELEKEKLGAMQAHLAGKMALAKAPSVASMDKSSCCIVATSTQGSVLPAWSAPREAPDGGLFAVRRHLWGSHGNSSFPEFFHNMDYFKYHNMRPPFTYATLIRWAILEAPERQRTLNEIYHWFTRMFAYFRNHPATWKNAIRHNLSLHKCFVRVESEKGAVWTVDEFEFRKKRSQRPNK

Sequence | binding signal (RPM ratio (pull-down/input))
GATGATTGTTCTCCCAGCTGATGAATTTCGACCGTCGAGTAAACAAATTTTCCTAATCTTTCTGTTCAAGCGCCATCTAC | 0.402
GATGATTGTTCTCCCAGCTGATGAATTCTCCGCATCGAGTAAACAAATTTTCCTAATCTTTCTGTTCAAGCGCCATCTAC | 0.8
GATGATTGTTCTCCCAGCTGATGAATTGTCGCTGTCGAGTAAACAAATTTTCCTAATCTTTCTGTTCAAGCGCCATCTAC | 0.566
GATGATTGTTCTCCCAGCTGATGAATTCTGTGGATCGAGTAAACAAATTTTCCTAATCTTTCTGTTCAAGCGCCATCTAC | 1.34
GATGATTGTTCTCCCAGCTGATGAATTGACACCGTCGAGTAAACAAATTTTCCTAATCTTTCTGTTCAAGCGCCATCTAC | 0.436
GATGATTGTTCTCCCAGCTGATGAATTTAGACAGTCGAGTAAACAAATTTTCCTAATCTTTCTGTTCAAGCGCCATCTAC | 0.418
GATGATTGTTCTCCCAGCTGATGAATTCATTTCATCGAGTAAACAAATTTTCCTAATCTTTCTGTTCAAGCGCCATCTAC | 0.425
GATGATTGTTCTCCCAGCTGATGAATTAGTGCAGTCGAGTAAACAAATTTTCCTAATCTTTCTGTTCAAGCGCCATCTAC | 0.901
GATGATTGTTCTCCCAGCTGATGAATTGCATGCTTCGAGTAAACAAATTTTCCTAATCTTTCTGTTCAAGCGCCATCTAC | 2.33
GATGATTGTTCTCCCAGCTGATGAATTGTTTTTTTCGAGTAAACAAATTTTCCTAATCTTTCTGTTCAAGCGCCATCTAC | 4.84
GATGATTGTTCTCCCAGCTGATGAATTAAGGCTGTCGAGTAAACAAATTTTCCTAATCTTTCTGTTCAAGCGCCATCTAC | 0.532
GATGATTGTTCTCCCAGCTGATGAATTAGGGGGATCGAGTAAACAAATTTTCCTAATCTTTCTGTTCAAGCGCCATCTAC | 0.395
GATGATTGTTCTCCCAGCTGATGAATTGCGGCCCTCGAGTAAACAAATTTTCCTAATCTTTCTGTTCAAGCGCCATCTAC | 0.884
GATGATTGTTCTCCCAGCTGATGAATTCTGAGCCTCGAGTAAACAAATTTTCCTAATCTTTCTGTTCAAGCGCCATCTAC | 0.516
GATGATTGTTCTCCCAGCTGATGAATTACCCGTTTCGAGTAAACAAATTTTCCTAATCTTTCTGTTCAAGCGCCATCTAC | 0.334
GATGATTGTTCTCCCAGCTGATGAATTAGTTGCGTCGAGTAAACAAATTTTCCTAATCTTTCTGTTCAAGCGCCATCTAC | 3.34

Sequence | binding signal (RPM ratio (pull-down/input))
GATGATTGTTCTCCCAGCTGATGAATTTTTCAACTCGAGTAAACAAATTTTCCTAATCTTTCTGTTCAAGCGCCATCTAC | 0.287
GATGATTGTTCTCCCAGCTGATGAATTCCCCCATTCGAGTAAACAAATTTTCCTAATCTTTCTGTTCAAGCGCCATCTAC | 0.264
GATGATTGTTCTCCCAGCTGATGAATTTGAGCCCTCGAGTAAACAAATTTTCCTAATCTTTCTGTTCAAGCGCCATCTAC | 0.434
GATGATTGTTCTCCCAGCTGATGAATTCATCGTATCGAGTAAACAAATTTTCCTAATCTTTCTGTTCAAGCGCCATCTAC | 0.859
GATGATTGTTCTCCCAGCTGATGAATTTTGGTAGTCGAGTAAACAAATTTTCCTAATCTTTCTGTTCAAGCGCCATCTAC | 0.754
GATGATTGTTCTCCCAGCTGATGAATTTGTTTTGTCGAGTAAACAAATTTTCCTAATCTTTCTGTTCAAGCGCCATCTAC | 7.57
GATGATTGTTCTCCCAGCTGATGAATTAGTAGGTTCGAGTAAACAAATTTTCCTAATCTTTCTGTTCAAGCGCCATCTAC | 1.09
GATGATTGTTCTCCCAGCTGATGAATTTGCCTGCTCGAGTAAACAAATTTTCCTAATCTTTCTGTTCAAGCGCCATCTAC | 1.31
GATGATTGTTCTCCCAGCTGATGAATTCAATAGCTCGAGTAAACAAATTTTCCTAATCTTTCTGTTCAAGCGCCATCTAC | 0.877
GATGATTGTTCTCCCAGCTGATGAATTCCAGCTGTCGAGTAAACAAATTTTCCTAATCTTTCTGTTCAAGCGCCATCTAC | 0.355
GATGATTGTTCTCCCAGCTGATGAATTTAGGCAGTCGAGTAAACAAATTTTCCTAATCTTTCTGTTCAAGCGCCATCTAC | 0.47
GATGATTGTTCTCCCAGCTGATGAATTGGGGTACTCGAGTAAACAAATTTTCCTAATCTTTCTGTTCAAGCGCCATCTAC | 0.652
GATGATTGTTCTCCCAGCTGATGAATTATTATTTTCGAGTAAACAAATTTTCCTAATCTTTCTGTTCAAGCGCCATCTAC | 1.61
GATGATTGTTCTCCCAGCTGATGAATTAAGTCAATCGAGTAAACAAATTTTCCTAATCTTTCTGTTCAAGCGCCATCTAC | 0.346
GATGATTGTTCTCCCAGCTGATGAATTAGGTATCTCGAGTAAACAAATTTTCCTAATCTTTCTGTTCAAGCGCCATCTAC | 3.33
GATGATTGTTCTCCCAGCTGATGAATTTCAGGAGTCGAGTAAACAAATTTTCCTAATCTTTCTGTTCAAGCGCCATCTAC | 0.214
